Assay results published in the supplement of paper PMC12217912.
This is one part of the list. Sequences were assembled here from the parent chain. Inactive controls read about 0.05.

B1: TEV protease; numbered along this chain (parent)
chain: MGESLFKGPRDYNPISSSICHLTNESDGHTTSLYGIGFGPFIITNKHLFRRNNGTLVVQSLHGVFKVKDTTTLQQHLVDGRDMIIIRMPKDFPPFPQKLKFREPQREERICLVTTNFQTKSMSSMVSDTSCTFPSGDGIFWKHWIQTKDGQCGSPLVSTRDGFIVGIHSASNFTNTNNYFTSVPKNFMELLTNQEAQQWVSGWRLNADSVLWGGHKVFMVKPEEPFQPVKEATQL

Variants of: B1
Assay: raw area under fraction-flipped curve 0-4 h after induction (AUC4h, not background-subtracted), DNA-recorder readout of cleavage of the substrate (dimensionless); higher = more cleavage of the substrate by the protease variant
Conditions: temperature: 34 °C; time window: 0-4 h after rhamnose induction
Experimental: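 In vivo DNA recorder in E. coli TOP10(DE3) ΔrhaA at 34 °C. Each TEVp single-site mutant (parent TEVp 0) is paired with a single-site variant of the 7-mer TEVs (canonical ENLYFQ|S). The substrate sits between flexible linkers in a Bxb1-sfGFP-TEVs-SsrA fusion, so cleavage stabilises Bxb1 and speeds flipping of a recombination array, read by NGS. The value is the raw area under the fraction-flipped curve over 0-4 h after rhamnose induction (AUC4h), with ≥20 reads per time point. It is not background-subtracted; inactive controls average about 0.047.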
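Note: Bxb1 expression induced with 0.2% (w/v) L-rhamnose at OD600 near 0.5, cultures sampled hourly, flipped fraction per protease–substrate barcode pair counted by paired-end Illumina sequencing.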

| Variant | area with substrate CNLYFQS | area with substrate FNLYFQS | area with substrate GNLYFQS | area with substrate HNLYFQS | area with substrate PNLYFQS | area with substrate TNLYFQS | area with substrate WNLYFQS | area with substrate INLYFQS | area with substrate KNLYFQS | area with substrate SNLYFQS |
| --- | --- | --- | --- | --- | --- | --- | --- | --- | --- | --- |
| Q197E | 0.0732 | 0.0607 | 0.0532 | 0.052 | 0.027 | 0.0492 | 0.0607 |  |  |  |
| Q146L | 0.0834 |  |  | 0.0605 |  | 0.0592 | 0.0562 | 0.0755 | 0.0957 | 0.0721 |
| K142Q | 0.0873 |  | 0.0686 | 0.0711 |  | 0.0674 | 0.0708 | 0.0689 |  | 0.0707 |
| E189H | 0.0798 | 0.0351 | 0.0662 | 0.0672 | 0.0681 |  | 0.0516 | 0.0652 |  | 0.0823 |
| E189S | 0.043 |  |  | 0.0598 |  | 0.0672 | 0.0646 | 0.106 |  |  |
| E189R | 0.0649 | 0.0674 |  | 0.0446 |  | 0.0608 | 0.0531 | 0.0567 | 0.0745 | 0.0645 |
| L190C | 0.0834 |  | 0.0568 | 0.0453 |  | 0.112 | 0.0662 | 0.0461 | 0.0641 |  |
| L190S | 0.0688 | 0.0618 |  |  |  | 0.0618 | 0.0713 |  | 0.0708 | 0.0623 |
| M122G | 0.0679 |  | 0.0927 |  |  |  | 0.0595 |  | 0.0419 |  |
| F173R | 0.0501 |  |  | 0.0551 |  |  | 0.0649 |  |  |  |
| F140H | 0.0638 |  |  |  | 0.0553 | 0.0564 | 0.056 |  |  |  |
| N178V | 0.0666 |  |  | 0.0754 |  | 0.0543 | 0.0571 |  |  |  |
| N178W | 0.0811 |  | 0.0853 |  |  |  |  |  |  |  |
| I145P | 0.0101 |  |  |  |  |  |  |  |  |  |
| H143M | 0.0611 | 0.0577 | 0.0659 | 0.0507 | 0.0569 | 0.0618 | 0.0572 | 0.0858 | 0.0715 | 0.0546 |
| S209L | 0.0834 |  |  |  |  | 0.0668 | 0.0654 |  |  | 0.0578 |
| N177K | 0.0727 |  |  |  | 0.0729 | 0.0816 | 0.0508 | 0.0868 |  | 0.0985 |
| S182G | 0.0587 |  |  | 0.06 | 0.0636 | 0.0739 | 0.0569 |  | 0.0594 |  |
| S182T | 0.062 |  | 0.059 |  |  |  |  | 0.0358 |  |  |
| S182L | 0.0679 |  |  | 0.0592 |  |  | 0.0495 |  | 0.0518 | 0.0336 |
| N193E | 0.0537 | 0.0697 | 0.067 |  |  | 0.069 | 0.0626 | 0.0619 | 0.0454 | 0.0558 |

Same assay, conditions: temperature: 34 °C; time window: 0-4 h after rhamnose induction

| Variant | area with substrate RNLYFQS | area with substrate VNLYFQS | area with substrate YNLYFQS | area with substrate LNLYFQS | area with substrate MNLYFQS | area with substrate QNLYFQS | area with substrate NNLYFQS |
| --- | --- | --- | --- | --- | --- | --- | --- |
| K142Q | 0.089 | 0.0646 | 0.0854 |  |  |  |  |
| E189H |  |  |  | 0.0672 | 0.0784 | 0.0848 |  |
| E189S |  |  |  | 0.0589 | 0.035 | 0.0721 | 0.073 |
| E189R |  | 0.0601 | 0.0672 | 0.0597 |  |  |  |
| L190C |  | 0.0675 | 0.0604 |  |  |  |  |
| L190S |  |  |  |  | 0.0624 |  |  |
| M122G |  |  | 0.0887 | 0.067 | 0.0672 | 0.0745 | 0.0712 |
| F173R | 0.0661 |  | 0.0435 | 0.0737 |  |  |  |
| F140H |  |  | 0.066 | 0.0629 |  |  | 0.0596 |
| N178V |  | 0.0761 | 0.0645 | 0.0642 | 0.0306 |  | 0.0561 |
| H143M |  |  | 0.0585 |  | 0.0637 | 0.0768 | 0.0503 |
| S209L |  | 0.0486 |  | 0.0617 |  |  |  |
| N177K |  |  | 0.0716 |  |  |  |  |
| S182G |  |  | 0.056 |  | 0.0614 |  | 0.0506 |
| N193E |  |  | 0.0527 | 0.0572 | 0.0707 | 0.0611 |  |
